Data reported in the supplement of paper PMC11417369.
This is one part of the list.

The sequences below were run on PfHDP1 homeodomain (GST-tagged) (assay: gcPBM binding intensity (ln(normalized median fluorescence intensity)); higher = stronger DNA binding).
In short: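 In this array assay, P. falciparum DNA-binding domains with a GST tag, expressed in E. coli, were applied for 1 h to primer-extended double-stranded 36-bp intergenic genomic probes and negative controls on an Agilent 4 × 180k array. Bound protein was visualised with Alexa488 anti-GST antibody at 488 nm. Binding intensity is the highest Masliner-normalised natural-log median intensity across replicate spots of either probe orientation.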

Question: With “GAAGAATAAATATGCACACATGCATATATTTTTACA [CACACA_site3459]” as the sequence, how does the “gcPBM binding intensity (ln)” value read?
Answer: 10

Question: For “TAAAAAAATTTAACATGTACAAATATTGAAAAGGAC [XGTACX_site7608]”, which “gcPBM binding intensity (ln)” value is on record?
Answer: 7.7

Question: How did the “gcPBM binding intensity (ln)” value turn out when “ATTAAAAAAGAATATACACACCAAAACTGTTTGTTA [CACACA_site4687]” was run?
Answer: 6.4

Question: How did the “gcPBM binding intensity (ln)” value turn out when “TATATATATATATATACATGCATATATATAATATAT [TGCATGCA_site763]” was run?
Answer: 9.32

Question: Which “gcPBM binding intensity (ln)” value does the source give for “GTAAGTTGTGCATTCACACACATATATATATATATA [CACACA_site3303]” here?
Answer: 9.96

Question: How did the “gcPBM binding intensity (ln)” value turn out when “TTAAGATCCTAAAAAACACACAATTGTGAATAATAA [CACACA_site3872]” was run?
Answer: 6.55

Question: “TTTTGTTTCTATATAAGATGGAAATATAAACTTGTA [CACACA_negctrl_site82]” was tested. Which “gcPBM binding intensity (ln)” value did it give?
Answer: 6.11

Question: For “TGTTTTTATAATATTAGTACATAATATACATAATTC [XGTACX_site2787]”, which “gcPBM binding intensity (ln)” value is on record?
Answer: 6.4

Question: For “AATAAATTAATTTTGGGTACATATATATATATATAT [XGTACX_site3807]”, which “gcPBM binding intensity (ln)” value is on record?
Answer: 9.34

Question: Which “gcPBM binding intensity (ln)” value does the source give for “AAATATATATAAATGAGTACTTATGGTAACATATAT [XGTACX_site6362]” here?
Answer: 6.49

Question: For “AAAAAATATTGAAGTACACACATTATGAACTTTTTT [CACACA_site1733]”, which “gcPBM binding intensity (ln)” value is on record?
Answer: 6.09

Question: With “TTCCACATTTTACAGACACACACAATTTATATTACG [CACACA_site8572]” as the sequence, how does the “gcPBM binding intensity (ln)” value read?
Answer: 6.84

Question: How did the “gcPBM binding intensity (ln)” value turn out when “ATAAATAATTATAATTGTACACATATATATATATAC [XGTACX_site3998]” was run?
Answer: 6.77

Question: How did the “gcPBM binding intensity (ln)” value turn out when “AGAGCATAATAAAACACACACATACATACCTATATA [CACACA_site6566]” was run?
Answer: 8.72

Question: Which “gcPBM binding intensity (ln)” value does the source give for “TATATATATAAAAATACACACATGAATGAATATATA [CACACA_site419]” here?
Answer: 6.98

Question: “TCTTTATTATTCGCCACACACATATATATATATATA [CACACA_site3077]” was tested. Which “gcPBM binding intensity (ln)” value did it give?
Answer: 9.38

Question: With “TTTTAAAAAAAATAAAAAATAAACAATAATAAATAA [CACACA_negctrl_site721]” as the sequence, how does the “gcPBM binding intensity (ln)” value read?
Answer: 6.32

Question: With “AAAATATAATATAATGCACACATAAAAAAAAAATCA [CACACA_site7922]” as the sequence, how does the “gcPBM binding intensity (ln)” value read?
Answer: 10.2

Question: “TATCTGTAAATGGACACACACATATATATATATATA [CACACA_site5926]” was tested. Which “gcPBM binding intensity (ln)” value did it give?
Answer: 9.36

Question: “TATACATACCCACCCACACACAAAAAAAAAAAAAAA [CACACA_site4632]” was tested. Which “gcPBM binding intensity (ln)” value did it give?
Answer: 6.63

Question: Which “gcPBM binding intensity (ln)” value does the source give for “GGGGGCTTTTATAAAAGTACAAAATGAATAAAAATT [XGTACX_site2393]” here?
Answer: 7.93

Question: How did the “gcPBM binding intensity (ln)” value turn out when “TATACTCATAAATACACACACATATATATATATATA [CACACA_site5822]” was run?
Answer: 9.25

Question: With “AAAAAAAAGGAAATAACACACATGTATATATCTATA [CACACA_site6856]” as the sequence, how does the “gcPBM binding intensity (ln)” value read?
Answer: 6.15

Question: Which “gcPBM binding intensity (ln)” value does the source give for “TTCATATAGAATTGTACACACAAAAACGACATTGTG [CACACA_site7061]” here?
Answer: 6.89

Question: How did the “gcPBM binding intensity (ln)” value turn out when “GGGGACGCGGGTGGGGGTACTCACACTATGCAAAAT [XGTACX_site7745]” was run?
Answer: 7.86

Question: With “ATATATATATGTATGTATATATATATATATGTTTGA [GTGCAC_negctrl_site561]” as the sequence, how does the “gcPBM binding intensity (ln)” value read?
Answer: 8.46

Question: Which “gcPBM binding intensity (ln)” value does the source give for “GTATCAATAAAAAACAGTACATATATAATATATTTA [XGTACX_site1083]” here?
Answer: 6.24

Question: Which “gcPBM binding intensity (ln)” value does the source give for “ATATTGTGTTATAAATGTACACAATTTCCTTTCATA [XGTACX_site7481]” here?
Answer: 6.38

Question: How did the “gcPBM binding intensity (ln)” value turn out when “TTTTTAAAAATATACACACACAGATATTATATATAT [CACACA_site786]” was run?
Answer: 6.94

Question: With “ATATATGTTCCTTTTACACACATAATCTTTTTTTTA [CACACA_site2661]” as the sequence, how does the “gcPBM binding intensity (ln)” value read?
Answer: 7.08

Question: Which “gcPBM binding intensity (ln)” value does the source give for “AAAATATAATATAATGCACACATAAAAAAAAAAAAA [CACACA_site7989]” here?
Answer: 9.84

Question: “AAAATATATAAATATACATGCATAATTAATAGTATA [TGCATGCA_site804]” was tested. Which “gcPBM binding intensity (ln)” value did it give?
Answer: 6.39

Question: With “TAATATGAAGATGGCAGTACTCTAGTCAATTTTTAC [XGTACX_site5375]” as the sequence, how does the “gcPBM binding intensity (ln)” value read?
Answer: 6.12

Question: Which “gcPBM binding intensity (ln)” value does the source give for “AATTCAAAGAAAAACTGTACGTGTAGCAAACATCCT [XGTACX_site599]” here?
Answer: 6.79

Question: Which “gcPBM binding intensity (ln)” value does the source give for “TACAAAAGCTATAACATTCACCACATTATAAAAATA [CACACA_negctrl_site1112]” here?
Answer: 6.35

Question: Which “gcPBM binding intensity (ln)” value does the source give for “TTTAAAAAAAAAAATACACACATAAAAGTTTTCAAA [CACACA_site6471]” here?
Answer: 6.27

Question: With “TTACAAATATTATAATGTACCCATTTTTTTTGCCTT [XGTACX_site6612]” as the sequence, how does the “gcPBM binding intensity (ln)” value read?
Answer: 6.39

Question: For “TTTTCATTAAGATACTTATAATAGTTTATTAGTAAA [CACACA_negctrl_site586]”, which “gcPBM binding intensity (ln)” value is on record?
Answer: 6.04

Question: For “TGATTAAATCAAGAAAGTACAAAATGAAATATATAA [XGTACX_site4319]”, which “gcPBM binding intensity (ln)” value is on record?
Answer: 6.72

Question: Which “gcPBM binding intensity (ln)” value does the source give for “ATATATTTTATACATACACACATATATATATTTTTT [CACACA_site3940]” here?
Answer: 6.83

Question: For AAAATAATTTTATAGTTGCACTATATCGTATACAAT, which “gcPBM binding intensity (ln)” value is on record?
Answer: 8.15

Question: With “TAAAGTGTAAAATTCACACACATATAAATAAATATA [CACACA_site6765]” as the sequence, how does the “gcPBM binding intensity (ln)” value read?
Answer: 6.45

Question: With “ATATATATTTATATATGTACATATTTTTGTGTATTT [XGTACX_site1183]” as the sequence, how does the “gcPBM binding intensity (ln)” value read?
Answer: 6.48

Question: How did the “gcPBM binding intensity (ln)” value turn out when “ATATATATATATATATGTACATAATAATTTTATAAA [XGTACX_site5105]” was run?
Answer: 9.25

Question: For “AATAATAATAGAAACACACACACATTTTTAATAATA [CACACA_site1217]”, which “gcPBM binding intensity (ln)” value is on record?
Answer: 6.82

Question: With “CTACTTAATATTTGTACACACATATTTAACCTACTA [CACACA_site5725]” as the sequence, how does the “gcPBM binding intensity (ln)” value read?
Answer: 7.02

Question: “TTAATTATGTTTTGGTGTACAATAAATTGAATAGAT [XGTACX_site3306]” was tested. Which “gcPBM binding intensity (ln)” value did it give?
Answer: 6.68

Question: With “CAAAAATTACCCTTGTGTACACATATATTATATGTA [XGTACX_site1124]” as the sequence, how does the “gcPBM binding intensity (ln)” value read?
Answer: 7.52

Question: For “ATAAAAAAATCAGACACACACACGTAAACACATACA [CACACA_site5529]”, which “gcPBM binding intensity (ln)” value is on record?
Answer: 6.96

Question: “ATATCATCTTCTCTATCATTTTTTTTTTTTTTTTTT [CACACA_negctrl_site1220]” was tested. Which “gcPBM binding intensity (ln)” value did it give?
Answer: 6.5

Question: For “TGAGATAAATGTGGTAGTACATTTTTTTTATATATA [XGTACX_site1918]”, which “gcPBM binding intensity (ln)” value is on record?
Answer: 6.39

Question: For “TCCATTGTCACCTTTTGTACTTAAATTTTTTCCTCC [XGTACX_site1573]”, which “gcPBM binding intensity (ln)” value is on record?
Answer: 7.07

Question: Which “gcPBM binding intensity (ln)” value does the source give for “CTTTTTTTTTTTTTTTGTCCGTATGAGGGACCTATA [XGTACX_site8839]” here?
Answer: 5.88

Question: For “AAAAAAAATTCCAGTACACACAATAATACTAAAAAT [CACACA_site2801]”, which “gcPBM binding intensity (ln)” value is on record?
Answer: 6.53

Question: How did the “gcPBM binding intensity (ln)” value turn out when “AAAAATTACAAAAATGCATGTACTATTCATATTTTT [TGCATGCA_site918]” was run?
Answer: 6.48

Question: For “TAATATTATATTATATGTACATAACAAATTATATTT [XGTACX_site4296]”, which “gcPBM binding intensity (ln)” value is on record?
Answer: 6.85

Question: With “ATGAAAAAATTTAAATGTACATTACATATATTTATT [XGTACX_site2524]” as the sequence, how does the “gcPBM binding intensity (ln)” value read?
Answer: 6.29
